In paper PMC4336329 (PLoS ONE, 2015):
About 2,200 (0.71%) of roughly 310,000 compounds showed an effect of 50% or more. Effects have a minus sign here. The list shows a part of the results.

target: human ether-à-go-go-related gene (hERG) potassium channel (human, UniProt Q12809); assay: primary screen, population patch clamp on CHO cells stably expressing hERG
Sequence (Q12809 whole entry, looked up): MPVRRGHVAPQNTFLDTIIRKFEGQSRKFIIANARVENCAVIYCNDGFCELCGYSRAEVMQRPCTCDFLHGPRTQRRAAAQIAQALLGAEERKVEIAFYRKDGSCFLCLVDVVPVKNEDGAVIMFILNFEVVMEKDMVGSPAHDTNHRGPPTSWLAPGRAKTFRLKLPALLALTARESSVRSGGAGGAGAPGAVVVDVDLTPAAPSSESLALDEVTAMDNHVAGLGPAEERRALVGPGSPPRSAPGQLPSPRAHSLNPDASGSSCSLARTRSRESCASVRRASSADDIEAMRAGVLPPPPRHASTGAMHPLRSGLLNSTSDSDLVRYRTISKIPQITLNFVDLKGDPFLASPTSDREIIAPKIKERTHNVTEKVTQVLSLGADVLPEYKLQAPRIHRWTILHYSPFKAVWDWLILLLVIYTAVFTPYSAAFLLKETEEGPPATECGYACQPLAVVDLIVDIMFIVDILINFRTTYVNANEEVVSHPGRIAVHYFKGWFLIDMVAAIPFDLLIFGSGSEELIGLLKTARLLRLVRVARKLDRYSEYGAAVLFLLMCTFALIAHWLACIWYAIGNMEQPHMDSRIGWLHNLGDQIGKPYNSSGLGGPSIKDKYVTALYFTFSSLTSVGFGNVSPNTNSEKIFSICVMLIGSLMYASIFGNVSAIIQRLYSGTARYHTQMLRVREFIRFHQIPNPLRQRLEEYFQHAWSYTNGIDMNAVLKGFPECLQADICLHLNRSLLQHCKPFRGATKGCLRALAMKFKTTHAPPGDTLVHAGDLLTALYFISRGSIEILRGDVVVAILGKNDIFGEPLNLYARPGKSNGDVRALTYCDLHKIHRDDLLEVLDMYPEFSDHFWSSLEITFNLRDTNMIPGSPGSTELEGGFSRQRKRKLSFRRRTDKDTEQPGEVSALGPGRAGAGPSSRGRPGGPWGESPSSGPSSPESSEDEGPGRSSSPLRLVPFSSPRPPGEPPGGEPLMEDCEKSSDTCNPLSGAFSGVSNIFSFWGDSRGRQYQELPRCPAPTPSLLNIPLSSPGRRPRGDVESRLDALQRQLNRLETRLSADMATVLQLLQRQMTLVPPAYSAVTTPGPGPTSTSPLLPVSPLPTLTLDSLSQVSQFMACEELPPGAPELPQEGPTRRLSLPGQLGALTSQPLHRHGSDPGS

Structure (SMILES)	hERG current change (%, negative = inhibition) at 1uM
O=C1c2ccccc2C(=O)N1CCc1csc(-c2ccc(F)cc2)n1	4.06%
COCCN(C(=S)Nc1ccccc1OC)C(C)c1cccs1 (stereo not shown)	8.52%
CN(C)c1ccc(/C=C/C(=O)c2ccccc2)cc1[N+](=O)[O-]	-0.74%
COc1ccc(N(CC(=O)NCCC2=CCCCC2)S(=O)(=O)c2ccc(C)cc2)cc1	10.2%
COC(=O)c1ccc(C(=O)OC)c(NC(=S)N2CCCCC2C)c1 (stereo not shown)	-6.37%
COc1ccc(CC(=O)N[C@@H](C)C(=O)N2CCC3(CC2)NCCc2[nH]cnc23)cc1	5.92%
CC(=NCCc1ccccc1)c1c(O)[nH]c(=O)[nH]c1=O	3.43%
CCOc1ccc(CCNC(=O)CN(C)S(=O)(=O)c2ccc3c(c2)CCC(=O)N3)cc1OCC	11.1%
Cc1cccc(/C=N/n2c(C3CCCCC3)n[nH]c2=S)c1	5.65%
CC1Sc2ccc(C(=O)OCc3ccccc3Cl)cc2NC1=O (stereo not shown)	17.6%
COc1ccccc1NC(=O)CS(=O)(=O)c1cn(CC(=O)N(C(C)C)C(C)C)c2ccccc12	-0.963%
CC(C)(C)c1ccc(COC(=O)CNC(=O)CNC(=O)Cc2ccccc2)cc1	5.88%
CCCc1nnc(NC(=O)Cn2c(=O)oc3ccccc32)s1	19.1%
O=S(=O)(c1ccccc1)N1CCCCC1c1cccnc1 (stereo not shown)	14.4%
CCc1ccc(NC(=O)CCCn2nc(CC)n3c(cc4occc43)c2=O)cc1	7.94%
O=C(N/N=C/c1ccc2c(c1)OCO2)c1ccc(Cl)cc1Cl	14%
O=C(Nc1cccc(NC(=O)c2ccc3c(c2)OCO3)c1)c1ccccc1	-0.193%
O=C(Nc1ccc(F)cc1)c1ccc(Cn2cnnn2)cc1	11.1%
Cc1ccc(C[n+]2ccccc2)cc1.[Br-]	16.5%
O=C(CN1CCCCCC1)Nc1ccccc1C(=O)Nc1ccccc1	-2.27%
Cc1cccc(COc2ccc(/C=N/NC(=O)c3nnn(-c4nonc4N)c3CN3CCCCC3)cc2)c1	17.9%
CCCn1c(N2CCN(S(=O)(=O)Cc3ccccc3)CC2)nc2ccccc21	12.7%

Structure (SMILES)	hERG current change (%, negative = inhibition) at 1uM
Cc1cc(N2C(=O)CCC2=O)ccc1NC(=O)c1cccs1	15.5%
O=C(Nc1ccc(NC(=O)C2CCCCC2)cn1)c1ccco1	7.92%
COCCCN(C(=O)Nc1ccccc1)C(C)c1ccncc1 (stereo not shown)	-1.23%
COc1ccc(C(=O)NC(=S)N2CCCCC2)cc1	2.59%
COc1cc(-c2noc(C)c2/C=C/c2ccc(OC(C)=O)cc2)cc(OC)c1OC	14.2%
CC(C)CCNC(=O)c1ccc(Cl)c(NC(=O)c2ccccc2F)c1	10.5%
O=C(COc1ccc([N+](=O)[O-])cc1)N(Cc1cccs1)C1CCS(=O)(=O)C1 (stereo not shown)	13.3%
O=C(Nc1nncs1)c1ccc(N2C(=O)C3C4C=CC(C4)C3C2=O)cc1 (stereo not shown)	11%
CCOC(=O)Cn1c(=O)n(C2CCCC2)c(=O)c2ccccc21	1.1%
Cn1c(N2CCN(S(=O)(=O)c3ccc(F)cc3)CC2)nc2ccccc21	-1.42%
C=CCON1C(=O)C(=O)N(OCC=C)[C@H]2CCCC[C@H]21	8%
NC(=O)c1ccc(NC(=O)CSc2nnc(C3CCCCC3)n2N)cc1	15%
COc1ccc(N(C(=O)CNC(=O)c2ccco2)C(C(=O)NC2CCCCC2)c2ccco2)cc1 (stereo not shown)	8.78%
COc1ccccc1C(c1nnnn1CS(=O)(=O)c1ccc(C)cc1)N1CCSCC1 (stereo not shown)	3.5%
CCOc1ccc2c(c1)c(C(C)=O)c(C)n2Cc1ccco1	-11.3%
Cc1cccc(CC(=O)Nc2cc(C)c3c(=O)oc4ccccc4c3n2)c1	11%
O=C(NCCCN1CCN(c2ccccc2F)CC1)C1CCC(=O)N1C1CCCC1 (stereo not shown)	4.57%
CCO[C@@H]1OC(C(=O)NCc2ccccc2)=C[C@H](c2ccccc2)[C@H]1CCCO	12.6%
Cn1cc(/C=C(\NC(=O)c2ccccc2)C(=O)N2CCOCC2)c2ccccc21	19.2%
CCN(CC)C(=O)COC(=O)C1=NN(c2cc(C)ccc2C)C(=O)CC1	14.3%
COc1cc(/C=C2\C(=N)N3N=C(S(C)(=O)=O)SC3=NC2=O)ccc1OC(=O)c1ccco1	9.48%
C[C@]12CCC(=O)C[C@@H]1CC[C@@H]1[C@@H]2CC[C@]2(C)[C@@H](C(=O)COC(=O)CCC(=O)[O-])CC[C@@H]12.[Na+]	18%

Structure (SMILES)	hERG current change (%, negative = inhibition) at 1uM
COc1ccc(N=C2C(=O)N3c4c(cccc42)C(C)=CC3(C)C)cc1	11.8%
CCOC(=O)CSc1nnc(CNC(=O)c2cccs2)n1Cc1ccccc1	-8.11%
CCOCCCNCc1cc(Br)ccc1OCc1ccccc1	-33.8%
Cc1ccc(C)n1-c1ccc(N(C)C)cc1	2.63%
CN1C(=O)C(C)(C)c2cc(S(=O)(=O)NCCc3ccc(Cl)cc3)ccc21	-2.96%
COc1ccc(CC(=O)NCc2nnc(SCC(=O)Nc3ccccc3)n2C)cc1	17.7%
CCC(C(=O)NC1CCCCCC1)c1ccccc1 (stereo not shown)	13.7%
COc1ccc(Cl)cc1NC(=O)CN(C)C(=O)c1ccc(-n2nc(C)cc2C)cc1	5.36%
N=C1c2c(cc(=O)n3c2[nH]c2ccccc23)CN1CCN1CCOCC1	14.1%
CN1C(=O)CC(N2CCN(C(c3ccccc3)c3ccccc3)CC2)C1=O (stereo not shown)	4.51%
CCOc1ccc(S(=O)(=O)NCCC(=O)N2CCCN(C)CC2)cc1	8.1%
Cc1ccc(NC(=O)CNC(=O)Cc2cccc3ccccc23)nc1	2.51%
COc1ccccc1CN=C1NC(=O)C(CC(=O)Nc2ccc(C(C)=O)cc2)S1 (stereo not shown)	1.73%
COc1ccccc1CNC(=O)C1CCC(CNC(=O)[C@@H]2Cc3ccccc3CN2)CC1 (stereo partly shown)	10.3%
CN(C)CCNC(=O)C1CC(=O)N(c2ccc(F)c(Cl)c2)C1 (stereo not shown)	-12%
CCCCn1c(SCC(=O)Nc2cc(C)on2)nc2cc(S(N)(=O)=O)ccc21	7.31%
N/C(=N\OC(=O)c1ccc2c(c1)OCO2)c1cccnc1	-3.99%
CCOc1ccccc1C(=O)NC1CC2CCCC(C1)N2Cc1ccc(C)cc1 (stereo not shown)	-43.6%
CCOc1cc(C(=O)CCC(=O)OCC(=O)NC(=O)NCC(C)C)ccc1O	-4.66%
O=C(O)c1c(NC(=O)N2CCOCC2)sc2c1CCCC2	13.9%
O=C(CN1CCc2ccccc2C1)Nc1ccc(F)cc1	14.6%
COc1ccc(/C=C2\C(=O)NC(=O)N(Cc3ccccc3)C2=O)c(OC)c1OC	8.15%

Structure (SMILES)	hERG current change (%, negative = inhibition) at 1uM
COC(=O)CSc1nc2nc(C)cc(C)n2n1	5.07%
Cc1ccc2nc(SCC(=O)N3CCCCC3)nc(=O)n2c1	12.4%
O=[N+]([O-])c1ccc(Sc2nnnn2-c2ccccc2)c(Cl)c1	-29.8%
CN1CCN(c2ncnc3nc[nH]c23)CC1	16.9%
COC(=O)/C(C(C)=O)=C(/C=C/C=C/N(C)C)N(C)C	12.9%
Cc1ccc(-n2nnnc2SCC(=O)NC(C(=O)O)(c2ccccc2)c2ccccc2)cc1C	13.1%
COc1ccc(-c2ccc(C)cc2)cc1[C@H]1[C@@H]2C=CCC[C@@]2(C)C(=O)N1Cc1ccccc1	10.9%
O=C(O)C[C@H]1c2cc(F)ccc2S(=O)(=O)N1C1CCCCC1	12.2%
CC(C)(C)OC(=O)N/N=C/c1cccn1-c1ccc([N+](=O)[O-])cc1	9.32%
CS(=O)(=O)N(Cc1ccccc1)c1ccc(C(=O)NCc2cccnc2)cc1	3.21%
O=C(NCCNc1ccccc1[N+](=O)[O-])c1cc(F)c(F)cc1Cl	-2.68%
COc1ccc(CCNC(=O)c2ccncc2)cc1OC	8.59%
Cc1cccc(N2C(=O)NC(=O)/C(=C\c3cnn(-c4ccccc4)c3)C2=O)c1	12.6%
COc1ccc(CCNC(=O)c2ccc(=O)[nH]n2)cc1OC	6.01%
COc1ccc(CCC(=O)Nc2ccc3c(c2)OCCO3)cc1	4.52%
CCOc1ccc(C(=O)NCC2CCCO2)cc1 (stereo not shown)	-1.75%
O=C(CNC(=O)c1ccc(Br)o1)NCCc1ccc(F)cc1	12.6%
COc1ccc(OC)c(/C(C)=N/Nc2ccc(C(=O)O)cc2)c1.O=S(=O)(O)O	7.97%
O=C(NN=C1CCCC1)c1ccc(O)cc1	13.5%
COc1ccccc1OCC#CCn1ccnc1.O=C(O)C(=O)O	6.59%
O=C(COC(=O)c1ccc(S(=O)(=O)N2CCOCC2)cc1)NC1CCCCCC1	10.1%
CC(O)[C@H]1CNC(=O)C(=O)N1CCc1cccc2ccccc12 (stereo partly shown)	20.1%
